Reference: article PMC4336329 (PLoS ONE, 2015)
The campaign covered roughly 310,000 compounds. About 14,000 (4.5%) showed an effect of 50% or more. The effect is printed as a negative number. The list shows a part of the results.

Biological target: human ether-à-go-go-related gene (hERG) potassium channel (human, UniProt Q12809)
Assay: primary screen, population patch clamp on CHO cells stably expressing hERG
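Note: peak tail current of the secondary pulse compared with the same well before compound.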

Chain of human ether-à-go-go-related gene (hERG) potassium channel (Q12809 whole entry, looked up): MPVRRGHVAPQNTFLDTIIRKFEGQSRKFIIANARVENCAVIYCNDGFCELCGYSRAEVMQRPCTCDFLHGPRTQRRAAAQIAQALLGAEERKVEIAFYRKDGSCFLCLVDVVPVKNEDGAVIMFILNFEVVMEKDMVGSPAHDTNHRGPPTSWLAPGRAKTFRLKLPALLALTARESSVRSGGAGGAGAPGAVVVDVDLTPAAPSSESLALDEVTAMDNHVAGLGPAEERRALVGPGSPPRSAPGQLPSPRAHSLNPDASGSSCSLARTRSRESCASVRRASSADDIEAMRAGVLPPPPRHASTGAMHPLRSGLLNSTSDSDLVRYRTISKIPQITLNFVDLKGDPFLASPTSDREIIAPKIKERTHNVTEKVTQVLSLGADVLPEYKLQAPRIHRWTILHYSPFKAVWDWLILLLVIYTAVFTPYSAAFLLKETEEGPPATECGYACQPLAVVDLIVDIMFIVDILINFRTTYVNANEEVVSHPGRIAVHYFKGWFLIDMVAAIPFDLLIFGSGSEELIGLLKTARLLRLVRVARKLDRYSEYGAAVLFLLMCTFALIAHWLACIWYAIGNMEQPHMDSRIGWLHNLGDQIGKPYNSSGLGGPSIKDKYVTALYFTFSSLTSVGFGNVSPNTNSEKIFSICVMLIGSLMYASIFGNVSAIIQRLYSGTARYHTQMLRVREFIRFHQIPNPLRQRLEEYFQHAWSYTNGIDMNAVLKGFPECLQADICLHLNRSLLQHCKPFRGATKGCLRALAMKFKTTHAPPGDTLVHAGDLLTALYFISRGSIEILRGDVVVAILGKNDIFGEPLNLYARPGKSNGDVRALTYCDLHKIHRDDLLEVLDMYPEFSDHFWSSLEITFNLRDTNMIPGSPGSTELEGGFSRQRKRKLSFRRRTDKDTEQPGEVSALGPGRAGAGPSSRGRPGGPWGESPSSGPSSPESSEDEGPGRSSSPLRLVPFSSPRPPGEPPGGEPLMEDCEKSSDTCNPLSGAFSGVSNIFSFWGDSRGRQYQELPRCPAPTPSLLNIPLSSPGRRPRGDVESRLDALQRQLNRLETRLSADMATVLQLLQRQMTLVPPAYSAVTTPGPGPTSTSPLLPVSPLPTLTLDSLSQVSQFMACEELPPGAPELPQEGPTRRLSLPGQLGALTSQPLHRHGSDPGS

First: COC(=O)c1cc(=O)n(Cc2cccs2)c(=Nc2ccc(F)cc2)s1
Second: Cc1cc(-c2nnc(CCC(=O)NC(C)c3ccc(F)cc3)o2)no1 (stereo not shown)
The “hERG current change (%, negative = inhibition) at 10uM” value of the first is higher: 9.11% for the first, -7.9% for the second.

Compared with `CCn1c(O)c(N=N)c2ccccc21`, `CCn1c(=O)cc(OCC(=O)NCCc2ccc(OC)c(OC)c2)c2ccccc21` is lower in “hERG current change (%, negative = inhibition) at 10uM” value: 12.3% for the first, -10.8% for the second.

Compared with `Cc1ccc(C)c(S(=O)(=O)NCc2ccc(C(=O)N3CCN(C)CC3)cc2)c1`, `Cc1cccc(N2CCN(C(=O)c3cc(S(=O)(=O)N4CCOCC4)cn3C)CC2)c1C` is lower in “hERG current change (%, negative = inhibition) at 10uM” value: -13.7% for the first, -21.6% for the second.

Compared with `CC(NC(=O)c1ccco1)c1ccc2c(c1)OCCO2` (stereo not shown), `O=C(Nc1ccc2c(c1)OCO2)c1ccc(Cl)cc1Cl` is lower in “hERG current change (%, negative = inhibition) at 10uM” value: 13.2% for the first, 2.07% for the second.

Compared with `OCC[C@@H]1C[C@@H](O)[C@H](O)[C@]2(OCc3ccccc32)O1`, `CCC1(C)COC2(OC1)C(=O)Nc1ccccc12` (stereo not shown) is lower in “hERG current change (%, negative = inhibition) at 10uM” value: 19% for the first, 8.96% for the second.

First: O=S(=O)(Nc1nc2ccccc2nc1NCc1ccco1)c1ccc(F)cc1
Second: Cc1ccccc1N(CC(=O)Nc1ccccc1C(=O)NCc1ccco1)S(=O)(=O)c1ccccc1
The “hERG current change (%, negative = inhibition) at 10uM” value of the first is higher: 22.9% for the first, -5.08% for the second.

Compared with `Cc1c(C(=O)NCCS(=O)(=O)N2CCN(c3ccccc3F)CC2)cccc1[N+](=O)[O-]`, `COC(=O)c1ccccc1S(=O)(=O)N1CCC(C(=O)OCc2ccc([N+](=O)[O-])cc2)CC1` is lower in “hERG current change (%, negative = inhibition) at 10uM” value: 9.43% for the first, -57.1% for the second.

First: CCOCCCn1c(=NC(=O)c2cccs2)c(C#N)cc2c(=O)n3ccccc3nc21
Second: CCOCCCNC(=O)c1cc(Sc2nnc(C)s2)nc2ccccc12
The “hERG current change (%, negative = inhibition) at 10uM” value of the first is lower: -76.9% for the first, -2.23% for the second.

Compared with `CCOC(=O)c1cnc2ccc(C(=O)OC)cc2c1NCCN1CCOCC1`, `CN(C)S(=O)(=O)n1cc(/C=C(\NC(=O)c2ccccc2Cl)C(=O)NCCCN2CCOCC2)c2ccccc21` is higher in “hERG current change (%, negative = inhibition) at 10uM” value: -30.2% for the first, 19.7% for the second.

Compared with `COC(=O)[C@@]12CCCN1[C@H](c1ccc(-c3ccc(OC)cc3)cc1)[C@@H]1C(=O)N(C)C(=O)[C@@H]12.O=C(O)C(F)(F)F`, `COc1ccc(S(=O)(=O)N2CCC(NC(=O)OCc3c(Cl)cccc3Cl)CC2)cc1` is higher in “hERG current change (%, negative = inhibition) at 10uM” value: 3.82% for the first, 12.8% for the second.

Going from `CN(C)CCN(Cc1cccs1)S(=O)(=O)c1csc(C(N)=O)c1` to `COC(CN(C)C(=O)c1ccc(CS(=O)(=O)c2ccccc2C)o1)OC`, the “hERG current change (%, negative = inhibition) at 10uM” value rises from 0.567% to 15.4%.

Compared with `COc1ccc(-c2c/c(=N\c3nc(-c4ccccc4)c(C)s3)c3ccccc3o2)cc1O`, `COc1cc(/C=N/NC(=O)c2cccc(NC(=O)c3ccccc3C)c2)ccc1O` is lower in “hERG current change (%, negative = inhibition) at 10uM” value: 4.17% for the first, -48.4% for the second.

First: O=C(Oc1cc2oc(=O)c3c(c2cc1Cl)CCCC3)c1cccs1
Second: Cc1ccc2nc(NC(=O)CSc3nc(=O)n(CCN(C)C)c4c3CCCC4)sc2c1
The “hERG current change (%, negative = inhibition) at 10uM” value of the first is higher: 15.9% for the first, -50.2% for the second.

Going from `O=C(c1cc(S(=O)(=O)N2CCOCC2)ccc1F)N1CCC2(CC1)OCCO2` to `Cc1csc(SCC(=O)c2ccc(S(=O)(=O)N3CCOCC3)cc2)n1`, the “hERG current change (%, negative = inhibition) at 10uM” value rises from -8.99% to 3.44%.

First: CNc1nc(NC)nc(-n2c(C(F)(F)F)nc3ccccc32)n1
Second: Cc1[nH]n(C2=NCCS2)c(=O)c1N=Nc1cccc(C(F)(F)F)c1
The “hERG current change (%, negative = inhibition) at 10uM” value of the first is lower: -17% for the first, 7.25% for the second.

First: CC(=O)NCc1cc(-c2nn(C)c(=O)c3ccccc23)ccc1C
Second: Cc1ccc(-n2ncc3c(=O)n(CC(=O)NCc4ccco4)cnc32)cc1C
The “hERG current change (%, negative = inhibition) at 10uM” value of the first is lower: -0.403% for the first, 19.3% for the second.

Going from `CCC(C)Sc1nc(O)cc(=O)[nH]1` (stereo not shown) to `CCCc1cc(=O)[nH]c(SCC(=O)Nc2nonc2N)n1`, the “hERG current change (%, negative = inhibition) at 10uM” value falls from 1.21% to -5.4%.

First: Cc1cc(-c2nc(C)c(-c3nnc(SCC(=O)Nc4ccccc4)n3C)s2)no1
Second: Cc1csc(NC(=O)CSc2nnc(-c3ccccn3)n2-c2ccc(C)c(C)c2)n1
The “hERG current change (%, negative = inhibition) at 10uM” value of the first is higher: 13.4% for the first, -78.5% for the second.

Going from `S=C(Nc1ccccc1)N1CCC(Cc2ccccc2)CC1` to `NC(Cc1c[nH]c2ccccc12)C(=O)Nc1ccccc1` (stereo not shown), the “hERG current change (%, negative = inhibition) at 10uM” value falls from -5.02% to -9.72%.

Going from `O=C(COC(=O)COc1ccc(Br)cc1)NC1CCCCCC1` to `COc1cccc(-n2nnnc2SCC(=O)NC2CCCC2)c1`, the “hERG current change (%, negative = inhibition) at 10uM” value rises from -2.53% to 3.62%.

Going from `CCn1c(SCc2cccc(OC)c2)nc2ccccc2c1=O` to `COc1cccc(CN2C(=O)C(C)Oc3ccccc32)c1` (stereo not shown), the “hERG current change (%, negative = inhibition) at 10uM” value falls from 18.8% to 8.93%.

Going from `COc1ccc(CNCCC(c2ccc(OC(C)C)cc2)c2ccccc2OC)cc1` (stereo not shown) to `COc1ccc(C(=O)NCCc2nnc3ccc(SCC(=O)Nc4ccccc4)nn23)cc1`, the “hERG current change (%, negative = inhibition) at 10uM” value rises from -66.1% to -13.5%.

First: Cc1cccc(C(=O)Nc2cccc(-c3cnc4ccccc4n3)c2)c1
Second: O=C(NCCc1ccccc1)c1ccc2c(c1)N(Cc1ccccc1)C(=O)CS2=O (stereo not shown)
The “hERG current change (%, negative = inhibition) at 10uM” value of the first is higher: 9.62% for the first, -8.69% for the second.

Compared with `CC1CCN(C(=S)NC(=O)c2ccccc2Br)CC1`, `CC1=C(C(=O)N2CCOCC2)C(c2ccc(Cl)cc2)NC(=S)N1` (stereo not shown) is lower in “hERG current change (%, negative = inhibition) at 10uM” value: 18.2% for the first, 10.8% for the second.

Going from `COc1ccc(Cn2nnnc2C(c2cccnc2)N2CCN(c3ccc(O)cc3)CC2)cc1` (stereo not shown) to `CN(c1ccc(C(=O)NCc2cccnc2)cc1)S(=O)(=O)c1ccc(Cl)cc1`, the “hERG current change (%, negative = inhibition) at 10uM” value falls from -14.5% to -15.8%.

Going from `CN(CC(O)Cn1cnc2c1c(=O)n(C)c(=O)n2C)c1ccccc1` (stereo not shown) to `Cc1cc(NC(=O)CSc2nc(-c3ccccc3)nc3c2c(=O)n(C)c(=O)n3C)no1`, the “hERG current change (%, negative = inhibition) at 10uM” value falls from 9.87% to 9.63%.

Compared with `CCn1nc(C)cc1C(=O)NC1CCCc2c1cnn2-c1cc(F)cc(F)c1` (stereo not shown), `CC1CCc2cc(F)ccc2N1C(=O)CSc1nnc2c(n1)[nH]c1ccccc12` (stereo not shown) is higher in “hERG current change (%, negative = inhibition) at 10uM” value: -5.58% for the first, 17.4% for the second.

Going from `O=C(NCCN1C(=O)S/C(=C\c2cccnc2)C1=O)c1ccc(S(=O)(=O)N2CCCC2)cc1` to `O=C(CN1C(=O)CSc2cc(S(=O)(=O)N3CCCCCC3)ccc21)NCCc1ccccc1`, the “hERG current change (%, negative = inhibition) at 10uM” value falls from -11.3% to -12.6%.

Compared with `Cc1cccc(C)c1N/C=C/c1onc(C)c1[N+](=O)[O-]`, `Cc1nn(C)c(C(=O)N/N=C/c2cccc(Oc3ccccc3)c2)c1Br` is higher in “hERG current change (%, negative = inhibition) at 10uM” value: 13.9% for the first, 16.4% for the second.

Compared with `O=c1c(Cl)c(N2CCN(c3ccccc3)CC2)cnn1C12CC3CC(CC(C3)C1)C2`, `O=C(CSc1nc2c(c(=O)n1-c1ccc(F)cc1)SCC2)NCC1CCCO1` (stereo not shown) is higher in “hERG current change (%, negative = inhibition) at 10uM” value: -12% for the first, -2.45% for the second.

First: Cc1ccc(-c2csc(NC(=O)CN3C(=O)CCC3=O)n2)cc1
Second: Cc1ccc(N2CC(C(=O)N/N=C/c3sccc3C)CC2=O)cc1 (stereo not shown)
The “hERG current change (%, negative = inhibition) at 10uM” value of the first is higher: 8.89% for the first, -12% for the second.

Compared with `CC(=O)CCC1C2C(O)C(C(C)C)C(OC(=O)/C=C/c3ccccc3)CC12C` (stereo not shown), `CCCOP(=O)(OCCC)C(NC(=O)c1ccccc1)=C(Cl)Cl` is higher in “hERG current change (%, negative = inhibition) at 10uM” value: -14.6% for the first, -1.95% for the second.

Going from `CCCCN1CC(=O)N2[C@H]3c4cc(OC)ccc4OC[C@@H]3[C@H](C(=O)OCC)[C@]2(C)C1=O` to `COc1ccc(CN(C)C(=O)C2CC(=O)N(c3ccc4c(c3)OCCO4)C2)c(OC)c1` (stereo not shown), the “hERG current change (%, negative = inhibition) at 10uM” value falls from -3.7% to -7.84%.

Compared with `Cc1cc(C)c(C#N)c(SCCS(=O)(=O)c2ccc(C(C)(C)C)cc2)n1`, `CN(C)CCCSc1nc(-c2ccccc2)nc2c1CCC2` is lower in “hERG current change (%, negative = inhibition) at 10uM” value: -5.75% for the first, -50.3% for the second.

Going from `O=C(NCCOc1ccccc1)c1ccc2c(c1)OCO2` to `FC(F)Oc1ccc(NC(=S)NCc2ccccc2)cc1`, the “hERG current change (%, negative = inhibition) at 10uM” value falls from 0.267% to -36.9%.

First: CN(CC(=O)Nc1ccc(F)c(F)c1)S(=O)(=O)c1cccc2cccnc12
Second: CCCCC(=O)NC(c1ccc(Cl)cc1)c1ccc2cccnc2c1O (stereo not shown)
The “hERG current change (%, negative = inhibition) at 10uM” value of the first is lower: -36.9% for the first, -23.5% for the second.

Going from `CCCN1CCN(CC(=O)Nc2nnc(C)s2)CC1` to `CCOC(=O)c1c(NC=O)sc2c1CCC2`, the “hERG current change (%, negative = inhibition) at 10uM” value falls from 23.6% to -2.89%.

First: CC(=O)Nc1ccc(NC(=O)c2ccc(N(C)S(=O)(=O)c3ccc(C)cc3)cc2)cc1
Second: CC(=O)c1ccc(Nc2nc(=O)c3cccnc3s2)cc1
The “hERG current change (%, negative = inhibition) at 10uM” value of the first is higher: 6.8% for the first, 0.27% for the second.

Going from `C/C(CC(=O)Nc1ccc(Cl)cc1Cl)=N\NC(=O)C(=O)NCCO` to `COc1ccc(C(=O)NCCc2nnc3ccc(SCC(=O)Nc4cc(C)on4)nn23)cc1`, the “hERG current change (%, negative = inhibition) at 10uM” value falls from 6.64% to 4.8%.

Going from `CCN(C(=O)CSc1nc2cc(S(=O)(=O)N(CC)CC)ccc2n1CC)C1CCS(=O)(=O)C1` (stereo not shown) to `CCOc1cc(C(=O)Nc2cc(C)ccc2OC)ccc1OCC(=O)N1CCCCC1`, the “hERG current change (%, negative = inhibition) at 10uM” value rises from -44.4% to -5.75%.

First: FC(F)(F)c1cccc(NC(=S)NCc2ccccc2)c1
Second: S=c1[nH]nc(-c2ccc(Cl)cc2)n1-c1cccnc1
The “hERG current change (%, negative = inhibition) at 10uM” value of the first is lower: -9.97% for the first, 23.5% for the second.

First: CNC(=S)NNc1nc(C)cc(C)n1
Second: COc1ccc(-c2nn(CCC(=O)O)cc2/C=N/NC(N)=S)cc1
The “hERG current change (%, negative = inhibition) at 10uM” value of the first is higher: 17.6% for the first, 2.54% for the second.

For `O=[N+]([O-])c1ccc(O)c([N+](=O)[O-])c1`, the “hERG current change (%, negative = inhibition) at 10uM” value was 9.06%.
